In the supplement of paper PMC11417369:
The other results are listed elsewhere or left out.

test system: PfAP2-HC AP2 domain (GST-tagged); test: gcPBM binding intensity (ln(normalized median fluorescence intensity)); higher = stronger DNA binding
Summary of the method: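 Plasmodium falciparum DNA-binding domains carrying a GST tag were expressed in E. coli and applied for 1 h, at about 25 μg on average, to an Agilent 4 × 180k array. The array held primer-extended double-stranded 36-bp intergenic genomic probes together with negative controls, and binding took place in 1× PBS with 1% milk, 0.2 mg/ml BSA, 0.5% salmon testes DNA and 0.03% Triton X-100. An Alexa488 anti-GST antibody detected bound protein, and the array was scanned at 488 nm. Binding intensity is taken as the highest Masliner-normalised natural-log median intensity across replicate spots of either probe orientation.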

Sequence | gcPBM binding intensity (ln)
AAGAAGAAACGGAAAAGTACAAAGAAGAAATAAGTA [XGTACX_site3680] | 9.76
CTTACAGACATATATACACACATGTATATTTTATAT [CACACA_site549] | 9.96
TTTTCTTTTCTCTTCTTTTTCTCCCATTATTAATCT [XGTACX_negctrl_site406] | 9.55
ATGTTTTTAATTTATTGTACATTAATTTGTATTATT [XGTACX_site253] | 10
GAGGATGCCTATGGCACACATTATAAAACTGTCGCT [CACACA_site4322] | 9.6
TTTTTATTATTTAAATGTACATATAAATATATATAT [XGTACX_site6870] | 9.61
ATATTTTATATGTTCACACATACATAAACATATTTT [CACACA_site4948] | 9.75
GAATAAAAATTTTAATGTACATATTTTTTATTTATA [XGTACX_site8935] | 9.54
GGTAGTTATTATCTCCGTACTTATAAAGAAAAAAGG [XGTACX_site4674] | 9.51
TACAAATATATAAAATGTACATATATATACATATTA [XGTACX_site3029] | 9.62
TTTATTTTCATATGAACACACATATAAATATTATAA [CACACA_site7172] | 9.64
CATAAAATTGTGAAGTGTACATATTTTTAAATATAA [XGTACX_site8986] | 9.69
ATAACTTTATTTTCCTGTACACACATTTGACATATT [XGTACX_site7192] | 10.5
ATATATAATATAAGATGTACAATAAAATCTATATAT [XGTACX_site546] | 9.67
AGAAATATCTAATTGTGTACTCAAGAAAAAGTTACG [XGTACX_site372] | 9.59
TTAATATAAATATGATTTTTGATTCCTATACTATTT [CACACA_negctrl_site752] | 9.63
TTGTATTCATATGGTTGTACATATTAAAAGTTCTAA [XGTACX_site7255] | 9.36
ATAAGGTTACAACAAACACACAAAGGAATATACGCA [CACACA_site4090] | 10.5
AAGAAGAATAGGCGTTGTACGGAATGTAGTAGAGTT [XGTACX_site2430] | 9.93

Sequence | gcPBM binding intensity (ln)
ATACGACAAATATAAAGTACAAGCTTGGTTTTTATA [XGTACX_site8103] | 9.68
TATGCAAGGAACCACACACACACACGGAAATGTATA [CACACA_site6490] | 10.9
AATTATGGGGAAAAGACACACATATATATATATATA [CACACA_site2589] | 9.79
TTATATATATATGTATGTACTTATAACTTTTATTAG [XGTACX_site3190] | 9.6
ATTCTATAGAAACACACACACATGCATGCACCTATA [CACACA_site107] | 10.7
TTTATTTTTAAAGGCACACACATTTTTATTTTTAAA [CACACA_site2021] | 9.83
TTCTTTTTTTTCAGTTGTACTTATAAGAAAGAAAAA [XGTACX_site4028] | 9.11
TTTATTTATAGAATTACACACATATATACACAAATG [CACACA_site7338] | 9.81
ATATATATAACAAAAGTGCATTAAGGGGATGCTATA | 9.68
TTATTATAAATAGGTAGTACATTTTGAACAAATATT [XGTACX_site8866] | 9.47
AATATAAATATAGGAAATGTAGTTAAAAGGTGTATG [CACACA_negctrl_site1233] | 9.9
TTTTATATATTCAATTGTACATGTATTTTTTTTTTT [XGTACX_site3584] | 9.76
CAAAGACACAAACACACACACACATACATACATACA [CACACA_site453] | 11.3
TATGGGTATGTATTCACACATAACAAAAATATCAAA [CACACA_site5059] | 9.75
ATATATATATATAACACACGCAAAAAAATTAAATAA [CACACA_site1400] | 9.91
TATACTGATAAAAAAAGTACTAGAGTTTGTAAAAAT [XGTACX_site3934] | 9.66
CACAAGAAAGTTCACACACACACATATATATATATA [CACACA_site6009] | 10.1
TTATATGTCAATTTGCGTACATACATAATTACATAT [XGTACX_site1546] | 9.9
AATTTTAATTTTTTGACACACATATAATATATATAT [CACACA_site3978] | 9.78

Sequence | gcPBM binding intensity (ln)
ATAAATTTACTTGATTGTACATTTCTTAGTTGTATT [XGTACX_site3057] | 9.75
ATTATCTTCAAGTATGTACACACTATATATAATAAA [CACACA_site2441] | 9.79
CTGAGGAAGCTAATTACACACATGCATATTTTTTTT [CACACA_site2177] | 9.92
ATCAAACAAAAAATAAAAAAATGCGACATGTGTACA [TGCATGCA_negctrl_site164] | 9.81
GAAAATTATGTATATTGTACAAATATTATATTAAAT [XGTACX_site2467] | 9.57
TTAATATTTTTAATTTGTACATATAATTAAATCTCT [XGTACX_site1736] | 9.55
TATAAAATTTAAATTATACACACTTAAGTAACATCA [CACACA_site531] | 9.68
CAAGGACAATTTACAAACATAATATATGTATATATA [TGCATGCA_negctrl_site5] | 9.54
TTGAATACATATATATGTACATATTCTATGGTTAGA [XGTACX_site4088] | 9.59
AATATATATTCATGTGTACACACAAAAAAAAATAAA [CACACA_site8690] | 10.5
CCTATAATTAGGGGTAGTACACAAAAAAAAAAAAAA [XGTACX_site6396] | 9.36
AATTCCTTATACAATTGTACATAAAAAGAATAAAAA [XGTACX_site1343] | 9.61
TTAAAAAAGAATTGTGCACACACAAAAAATGTTCAT [CACACA_site1102] | 10.1
TTTTTTTTACATGAACGTACATAATATATTTTATAA [XGTACX_site5249] | 9.42
TGGTGTTTTTTTTAATGTACTTATAAAATAATACAT [XGTACX_site6574] | 9.57
ATGTAAAAATAAAGATGTACATGTATATATATATAT [XGTACX_site5193] | 10.1
AAAAAATATTTTAGTGGTACATTTGTAGCTCTCAAA [XGTACX_site4859] | 9.54
AATCAAATATTTAAATGTACTCAAGAAGGCTTAATC [XGTACX_site6907] | 9.61
ATAACATGAACATATGTTACACAAACATACATACAT [XGTACX_negctrl_site365] | 9.91
